Patent US20180222958A1 (ONCOMED PHARMACEUTICALS, published 2018)

B1: 363F2 hFc-hLTαββ (Fc fusion)
chain: [omitted - human IgG1 Fc with changes]KPAAHLIGDPSKQNSLLWRANTDRAFLQDGFSLSNNSLLVPTSGIYFVYSQVVFSGKAYSPKATSSPLYLAHEVQLFSSQYPFHVPLLSSQKMVYPGLQEPWLHSMYHGAAFQLTQGDQLSTHTDGIPHLVLSPSTVFFGAFALLSPGLPAAHLIGAPLKGQGLGWETTKEQAFLTSGTQFSDAEGLALPQDGLYYLYCLVGYRGRAPPGGGDPQGRSVTLRSSLYRAGGAYGPGTPELLLEGAETVTPVLDPARRQGYGPLWYTSVGFGGLVQLRRGERVYVNISHPDMVDFARGKTFFGAVMVGLSPGLPAAHLIGAPLKGQGLGWETTKEQAFLTSGTQFSDAEGLALPQDGLYYLYCLVGYRGRAPPGGGDPQGRSVTLRSSLYRAGGAYGPGTPELLLEGAETVTPVLDPARRQGYGPLWYTSVGFGGLVQLRRGERVYVNISHPDMVDFARGKTFFGAVMVG
B2: 363F4 hFc-hLTββα (Fc fusion)
chain: [omitted - human IgG1 Fc with changes]LSPGLPAAHLIGAPLKGQGLGWETTKEQAFLTSGTQFSDAEGLALPQDGLYYLYCLVGYRGRAPPGGGDPQGRSVTLRSSLYRAGGAYGPGTPELLLEGAETVTPVLDPARRQGYGPLWYTSVGFGGLVQLRRGERVYVNISHPDMVDFARGKTFFGAVMVGLSPGLPAAHLIGAPLKGQGLGWETTKEQAFLTSGTQFSDAEGLALPQDGLYYLYCLVGYRGRAPPGGGDPQGRSVTLRSSLYRAGGAYGPGTPELLLEGAETVTPVLDPARRQGYGPLWYTSVGFGGLVQLRRGERVYVNISHPDMVDFARGKTFFGAVMVGKPAAHLIGDPSKQNSLLWRANTDRAFLQDGFSLSNNSLLVPTSGIYFVYSQVVFSGKAYSPKATSSPLYLAHEVQLFSSQYPFHVPLLSSQKMVYPGLQEPWLHSMYHGAAFQLTQGDQLSTHTDGIPHLVLSPSTVFFGAFAL
B3: 363F3 hFc-hLTβαβ (Fc fusion)
chain: [omitted - human IgG1 Fc with changes]LSPGLPAAHLIGAPLKGQGLGWETTKEQAFLTSGTQFSDAEGLALPQDGLYYLYCLVGYRGRAPPGGGDPQGRSVTLRSSLYRAGGAYGPGTPELLLEGAETVTPVLDPARRQGYGPLWYTSVGFGGLVQLRRGERVYVNISHPDMVDFARGKTFFGAVMVGKPAAHLIGDPSKQNSLLWRANTDRAFLQDGFSLSNNSLLVPTSGIYFVYSQVVFSGKAYSPKATSSPLYLAHEVQLFSSQYPFHVPLLSSQKMVYPGLQEPWLHSMYHGAAFQLTQGDQLSTHTDGIPHLVLSPSTVFFGAFALLSPGLPAAHLIGAPLKGQGLGWETTKEQAFLTSGTQFSDAEGLALPQDGLYYLYCLVGYRGRAPPGGGDPQGRSVTLRSSLYRAGGAYGPGTPELLLEGAETVTPVLDPARRQGYGPLWYTSVGFGGLVQLRRGERVYVNISHPDMVDFARGKTFFGAVMVG

Target: T1, membrane-bound extracellular domain of mouse LTβR (mLTβR-CD4TM-GFP) (mouse, UniProt P50284 31-223)
T1 construct: extracellular domain; also called mouse LTβR ecd, CD4TM and GFP; mLThR-GFP; not shown: CD4 transmembrane domain and GFP fused after the extracellular domain
T1 sequence (P50284 31-223): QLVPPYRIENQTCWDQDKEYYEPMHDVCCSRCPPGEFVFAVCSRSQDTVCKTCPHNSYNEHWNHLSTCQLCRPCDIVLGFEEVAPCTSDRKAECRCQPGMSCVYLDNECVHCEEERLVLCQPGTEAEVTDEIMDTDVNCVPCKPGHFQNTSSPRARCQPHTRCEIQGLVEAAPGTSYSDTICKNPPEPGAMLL
Assay: flow cytometry on HEK 293T cells transiently transfected with mouse LTβR ecd-CD4TM-GFP (row 'mLTBR GFP'); '0.5 ug/ml' printed at the upper left of the figure; APC-conjugated Fc secondary
Description: (§1) To test the binding of the different c-terminal human lymphotoxin heterotrimer constructs to human and mouse LTβR, HEK 293T cells were transiently transfected with cDNA expression vectors encoding cDNA for human or mouse LTβR ecd, CD4TM and GFP. Cells were then incubated with the various human lymphotoxin constructs 363F2, 363F3, or 363F4, washed and stained with APC-conjugated Fc secondary antibody. Mouse (deglycosylated) IgG1 Fc-mouse lymphotoxin-αββ heterotrimer fusion protein 363F1 was also tested. Binding of the lymphotoxin constructs was then assessed by flow cytometry using a Canto II FACS instrument (BD Biosciences) and analyzed using FlowJo software.

First: B1
Second: B2
The MFI of the first is lower: 8100 for the first, 9060 for the second.

B3 showed an MFI of 8940.

Target: T2, human LTβR ecd, CD4TM and GFP (human, UniProt P36941 31-227)
T2 construct: extracellular domain; also called hLTβR; hLThR-GFP; not shown: CD4 transmembrane domain and GFP fused after the extracellular domain
T2 sequence (P36941 31-227): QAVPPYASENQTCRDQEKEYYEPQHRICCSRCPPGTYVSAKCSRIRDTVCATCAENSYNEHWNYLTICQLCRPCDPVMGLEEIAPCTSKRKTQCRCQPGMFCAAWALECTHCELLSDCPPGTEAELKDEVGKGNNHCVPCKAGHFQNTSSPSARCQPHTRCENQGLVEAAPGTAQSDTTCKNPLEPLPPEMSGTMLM
Assay: flow cytometry on HEK 293T cells transiently transfected with human LTβR ecd-CD4TM-GFP (row 'hLTBR GFP'); '0.5 ug/ml' printed at the upper left of the figure; APC-conjugated Fc secondary
Description: as §1

Compared with B1, B2 is higher in MFI: 3680 for the first, 4770 for the second.

Work on B3 yielded an MFI of 3980.
